The subject of series [1] is Escherichia coli ATCC-8739. The experiment in a line: microbe, parasite or virus in culture. As for the experimental part: (§1) MIC Determination by Broth Micro Dilution
(§2) Standardisation of Inoculum
(§3) The inoculums were mixed.
(§4) Inoculation and Incubation

In series [2] the test system is US3-6-EGFP-HCMV-AD169. Conditions: CC50/EC50, HCMV in MRC5 cells.
Series [3] relates to US3-6-EGFP-HCMV-AD169. As to the kind of experiment: microbe, parasite or virus in culture. Conditions: Human betaherpesvirus 5, AD169, MRC5, 168 h.
Series [4] relates to Pseudomonas aeruginosa ATCC-9027. The experiment in a line: microbe, parasite or virus in culture. Conditions: ATCC9027. As for the experimental part: as §1, §2, §3, §4

≈ marks a conversion by molar mass, not a printed value. Read-outs that look alike come from different tables or passages of the source. A value given as a limit tells only on which side of the number the result lay.

In series [1] (Escherichia coli, ATCC8739), `CN[C@H](CC(C)C)C(=O)N[C@H]1C(=O)N[C@@H](CC(N)=O)C(=O)N[C@H]2C(=O)N[C@H]3C(=O)N[C@H](C(=O)N[C@H](C(=O)O)c4cc(O)cc(O)c4-c4cc3ccc4O)[C@H](O)c3ccc(c(Cl)c3)Oc3cc2cc(c3O[C@@H]2O[C@H](CO)[C@@H](O)[C@H](O)[C@H]2O[C@H]2C[C@](C)(N)[C@H](O)[C@H](C)O2)Oc2ccc(cc2Cl)[C@H]1O` [Vancomycin, reference compound] showed an MIC of 78 µg/mL (≈ 53.8 µM).
In the case of `Cc1ccc(C(C)C)cc1OC(=O)C[N+](C)(C)CCCCCCCCCC[N+](C)(C)CC(=O)Oc1cc(C(C)C)ccc1C` [Formula IV, N1,N10-bis(2-(5-isopropyl-2-methylphenoxy)−2-oxoethyl)-N1,N1,N10,N10-tetramethyldecane-1,10-diaminium dichloride], the “SI (CC50/EC50)” value in the series on US3-6-EGFP-HCMV-AD169 [2] was more than 3.66. For the same compound, in the series on US3-6-EGFP-HCMV-AD169 [3], the EC50 (commonly the midpoint of the concentration-response curve) stood at 32.8 µg/mL. Further, the MIC in series [4] turned out to be 0.98 µg/mL; in series [1] it was 1.95 µg/mL; in series [1] (Escherichia coli, ATCC8739), 3.9 µg/mL.
In the case of `Cc1ccc(C(C)C)c(OC(=O)C[N+](C)(C)CCCCCCCCCC[N+](C)(C)CC(=O)Oc2cc(C)ccc2C(C)C)c1` [Formula V, N1,N10-bis(2-(2-isopropyl-5-methylphenoxy)−2-oxoethyl)-N1,N1,N10,N10-tetramethyldecane-1,10-diaminium dichloride], the MIC in series [4] is 3.9 µg/mL; in series [1] it was 1.95 µg/mL; in series [1] (Escherichia coli, ATCC8739), 3.9 µg/mL.

The values above are taken from patent US12577196B2 (priority 2019, dated 2026).
